Measurements as given in PMC6932820, “Identification of viral SIM-SUMO2-interaction inhibitors for treating primary effusion lymphoma” (PLoS Pathogens, 2019).

Target: T1, GST-LANA1-329(N) (Kaposi's sarcoma-associated herpesvirus …, UniProt Q9QR71 1-329)
T1 construct: latency-associated nuclear antigen (LANA) of KSHV, encoded by ORF73, residues 1-329; also called GST-LANA-N (WT); source: E. coli BL21 (DE3), purified on beads
T1 sequence: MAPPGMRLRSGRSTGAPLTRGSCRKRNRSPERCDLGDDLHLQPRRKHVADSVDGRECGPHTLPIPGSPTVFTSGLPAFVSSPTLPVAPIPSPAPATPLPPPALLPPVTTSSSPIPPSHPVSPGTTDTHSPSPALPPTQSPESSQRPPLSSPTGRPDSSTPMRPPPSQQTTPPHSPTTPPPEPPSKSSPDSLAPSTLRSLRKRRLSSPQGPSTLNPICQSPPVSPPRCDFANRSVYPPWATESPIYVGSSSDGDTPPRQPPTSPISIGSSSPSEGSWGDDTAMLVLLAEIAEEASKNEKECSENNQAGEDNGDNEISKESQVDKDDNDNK
Experiment: pull-down; purified His-SUMO2 incubated with GST-LANA-N (WT or QTA) on glutathione-sepharose beads in NETN binding buffer (50 mM Tris-HCl pH 7.5, 100 mM NaCl) at 4°C; untreated, DMSO or different dosages of Cambogin; immunoblot
Conditions: both partners purified

B1: His-SUMO2 (natural protein)
chain: not shown
notes: SUMO2; also called purified His-SUMO2; source: E. coli BL21 (DE3), purified on beads
**Q.** Does B1 bind?
**A.** binds
